# T1: mouse PD1 (mPD1) (mouse, UniProt Q02242 25-288)
# T1 sequence (looked up): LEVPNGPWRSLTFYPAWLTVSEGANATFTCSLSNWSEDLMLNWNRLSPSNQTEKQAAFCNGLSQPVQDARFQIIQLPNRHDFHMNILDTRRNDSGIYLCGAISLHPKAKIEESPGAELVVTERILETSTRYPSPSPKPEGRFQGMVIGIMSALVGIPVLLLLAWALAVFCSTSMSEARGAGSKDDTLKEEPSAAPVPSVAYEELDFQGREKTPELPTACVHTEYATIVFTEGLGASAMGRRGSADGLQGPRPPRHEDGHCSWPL
# T2: mouse CD20 (mCD20) (mouse, UniProt P19437 1-291)
# T2 construct: whole, on cells; also called murine CD20
# T2 sequence (looked up): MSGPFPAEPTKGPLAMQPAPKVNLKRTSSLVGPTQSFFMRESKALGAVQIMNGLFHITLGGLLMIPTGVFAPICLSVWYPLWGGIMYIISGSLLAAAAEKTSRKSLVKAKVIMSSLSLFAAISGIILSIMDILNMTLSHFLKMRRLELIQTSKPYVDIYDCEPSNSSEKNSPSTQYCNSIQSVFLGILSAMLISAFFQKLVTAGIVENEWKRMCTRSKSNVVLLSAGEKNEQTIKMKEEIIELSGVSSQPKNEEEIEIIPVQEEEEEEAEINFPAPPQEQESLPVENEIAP
# How the values were obtained:
# mouse PD1 (mPD1) [1] = target: T1, mouse PD1 (mPD1); assay: cell-based or functional assay
# mouse PD1 (mPD1) [2] = target: T1, mouse PD1 (mPD1); assay: flow cytometry on Jurkat/mPD1 cells
# Experimental: (§1) Cells (HEK 293, MC38 over-expressing mCD20, or Jurkat over-expressing mPD1) were resuspended in FACS wash (PBS with 1% FBS) at 1×10⁶ cells/mL. The staining was performed in 1×10⁵ cells per well. The antibodies were diluted with a ratio of 1:5 from a starting concentration of 1.3×10⁻⁰⁷ M. The diluted antibodies were then added into the wells containing cells. Cells were stained for 30 min at 2-8° C. and washed twice with FACS wash buffer. APC-conjugated goat anti-human IgG (Jackson Immuno Research, 109-607-003, 1:400) or AF647-conjugated goat anti-mFc Fab (Jackson Immuno Research, 115-607-185, 1:400) was added to stain the cells for 30 min at 2-8° C. Following washing, cells were fixed in 2% paraformaldehyde for 30 min at 2-8° C. After two washes, stained cells were analyzed using BD LSRFortessa™ FACS instrument. The results were analyzed by FlowJo. FSC/SSC gates were used to select mononuclear cells.
# mouse CD20 (mCD20) = target: T2, mouse CD20 (mCD20); assay: flow cytometry on MC38/mCD20 cells
# Experimental: as §1
"IC50 (M), luciferase bioassay, 1 nM CD3 bsAb (mouse PD1 (mPD1) [1]) [M]","Max % inhibition, luciferase bioassay, 1 nM CD3 bsAb (mouse PD1 (mPD1) [1]) [%]",EC50 (mouse PD1 (mPD1) [2]) [nM],Max MFI (mouse PD1 (mPD1) [2]) [MFI],EC50 (mouse CD20 (mCD20)) [nM],Max MFI (mouse CD20 (mCD20)) [MFI],"IC50 (M), luciferase bioassay, 2.5 nM CD3 bsAb (mouse PD1 (mPD1) [1]) [M]","Max % inhibition, luciferase bioassay, 2.5 nM CD3 bsAb (mouse PD1 (mPD1) [1]) [%]",Binder
7.7e-10,80,,,,,,,2 + 1 m20_mPL_3 (Fc fusion) heavy 1: QVQLQQPGAELVRPGTSVKLSCKASGYTFTSYWMHWIKQRPGQGLEWIGVIDPSDNYTKYNQKFKGKATLTVDTSSSTAYMQLSSLTSEDSAVYFCAREGYYGSSPWFAYWGQGTLVTVSSASTKGPSVFPLAPSSKSTSGGTAALGCLVKDYFPEPVTVSWNSGALTSGVHTFPAVLQSSGLYSLSSVVTVPSSSLGTQTYICNVNHKPSNTKVDKKVEPKSCDGGGGSGGGGS[in this place about 200 residues][in this place about 250 residues] heavy 2: QVQLQQPGAELVRPGTSVKLSCKASGYTFTSYWMHWIKQRPGQGLEWIGVIDPSDNYTKYNQKFKGKATLTVDTSSSTAYMQLSSLTSEDSAVYFCAREGYYGSSPWFAYWGQGTLVTVSSASTKGPSVFPLAPSSKSTSGGTAALGCLVKDYFPEPVTVSWNSGALTSGVHTFPAVLQSSGLYSLSSVVTVPSSSLGTQTYICNVNHKPSNTKVDKKVEPKSCDKTHTCPPCPAPEAEGAPSVFLFPPKPKDTLMISRTPEVTCVVVDVSHEDPEVKFNWYVDGVEVHNAKTKPREEQYNSTYRVVSVLTVLHQDWLNGKEYKCKVSNKALPSSIEKTISKAKGQPREPQVCTLPPSRDELTKNQVSLSCAVKGFYPSDIAVEWESNGQPENNYKTTPPVLDSDGSFFLVSKLTVDKSRWQQGNVFSCSVMHEALHNRFTQKSLSLSPGK light: QIVMSQSPAILSASPGEKVTMTCRARSSVSYIHWYQQKPGSSPKPWIYATSNLASGVPGRFSGSGSGTSYSLTITRVEAEDAATYYCQQWSSKPPTFGGGTKLEIKRTVAAPSVFIFPPSDEQLKSGTASVVCLLNNFYPREAKVQWKVDNALQSGNSQESVTEQDSKDSTYSLSSTLTLSKADYEKHKVYACEVTHQGLSSPVTKSFNRGEC
,,6.31,6980,8.42,35300,6.5e-11,33,"2 + 2 m20_mPL_3 (Fc fusion, KiH-2 x 2 Fusion, (mPD1/mPD1) x (mCD20/mCD20), 197.1 kDa; also called Molecule ID K) [in this place about 200 residues][in this place about 250 residues][in this place about 200 residues] heavy: QVQLQQPGAELVRPGTSVKLSCKASGYTFTSYWMHWIKQRPGQGLEWIGVIDPSDNYTKYNQKFKGKATLTVDTSSSTAYMQLSSLTSEDSAVYFCAREGYYGSSPWFAYWGQGTLVTVSSASTKGPSVFPLAPSSKSTSGGTAALGCLVKDYFPEPVTVSWNSGALTSGVHTFPAVLQSSGLYSLSSVVTVPSSSLGTQTYICNVNHKPSNTKVDKKVEPKSCDKTHTCPPCPAPEAEGAPSVFLFPPKPKDTLMISRTPEVTCVVVDVSHEDPEVKFNWYVDGVEVHNAKTKPREEQYNSTYRVVSVLTVLHQDWLNGKEYKCKVSNKALPSSIEKTISKAKGQPREPQVCTLPPSRDELTKNQVSLSCAVKGFYPSDIAVEWESNGQPENNYKTTPPVLDSDGSFFLVSKLTVDKSRWQQGNVFSCSVMHEALHNRFTQKSLSLSPGKGGGGSGGGGSGGGGSQVQLQQPGAELVRPGTSVKLSCKASGYTFTSYWMHWIKQRPGQGLEWIGVIDPSDNYTKYNQKFKGKATLTVDTSSSTAYMQLSSLTSEDSAVYFCAREGYYGSSPWFAYWGQGTLVTVSSASTKGPSVFPLAPSSKSTSGGTAALGCLVKDYFPEPVTVSWNSGALTSGVHTFPAVLQSSGLYSLSSVVTVPSSSLGTQTYICNVNHKPSNTKVDKKVEPKSCD light: QIVMSQSPAILSASPGEKVTMTCRARSSVSYIHWYQQKPGSSPKPWIYATSNLASGVPGRFSGSGSGTSYSLTITRVEAEDAATYYCQQWSSKPPTFGGGTKLEIKRTVAAPSVFIFPPSDEQLKSGTASVVCLLNNFYPREAKVQWKVDNALQSGNSQESVTEQDSKDSTYSLSSTLTLSKADYEKHKVYACEVTHQGLSSPVTKSFNRGEC"
,,,8150,,16800,,18,"m20_mPL_1 (Fc fusion, KiH-1 x N-Ligand, mPD1 x mCD20, 123.2 kDa; also called Molecule ID A) [in this place about 200 residues][in this place about 250 residues] heavy: QVQLQQPGAELVRPGTSVKLSCKASGYTFTSYWMHWIKQRPGQGLEWIGVIDPSDNYTKYNQKFKGKATLTVDTSSSTAYMQLSSLTSEDSAVYFCAREGYYGSSPWFAYWGQGTLVTVSSASTKGPSVFPLAPSSKSTSGGTAALGCLVKDYFPEPVTVSWNSGALTSGVHTFPAVLQSSGLYSLSSVVTVPSSSLGTQTYICNVNHKPSNTKVDKKVEPKSCDKTHTCPPCPAPEAEGAPSVFLFPPKPKDTLMISRTPEVTCVVVDVSHEDPEVKFNWYVDGVEVHNAKTKPREEQYNSTYRVVSVLTVLHQDWLNGKEYKCKVSNKALPSSIEKTISKAKGQPREPQVCTLPPSRDELTKNQVSLSCAVKGFYPSDIAVEWESNGQPENNYKTTPPVLDSDGSFFLVSKLTVDKSRWQQGNVFSCSVMHEALHNRFTQKSLSLSPGK light: QIVMSQSPAILSASPGEKVTMTCRARSSVSYIHWYQQKPGSSPKPWIYATSNLASGVPGRFSGSGSGTSYSLTITRVEAEDAATYYCQQWSSKPPTFGGGTKLEIKRTVAAPSVFIFPPSDEQLKSGTASVVCLLNNFYPREAKVQWKVDNALQSGNSQESVTEQDSKDSTYSLSSTLTLSKADYEKHKVYACEVTHQGLSSPVTKSFNRGEC"
1.91e-10,84,,,,,,,2 + 2 m20_mPL_4 (Fc fusion) heavy: QVQLQQPGAELVRPGTSVKLSCKASGYTFTSYWMHWIKQRPGQGLEWIGVIDPSDNYTKYNQKFKGKATLTVDTSSSTAYMQLSSLTSEDSAVYFCAREGYYGSSPWFAYWGQGTLVTVSSASTKGPSVFPLAPSSKSTSGGTAALGCLVKDYFPEPVTVSWNSGALTSGVHTFPAVLQSSGLYSLSSVVTVPSSSLGTQTYICNVNHKPSNTKVDKKVEPKSCDGGGGSGGGGS[in this place about 200 residues][in this place about 250 residues] light: QIVMSQSPAILSASPGEKVTMTCRARSSVSYIHWYQQKPGSSPKPWIYATSNLASGVPGRFSGSGSGTSYSLTITRVEAEDAATYYCQQWSSKPPTFGGGTKLEIKRTVAAPSVFIFPPSDEQLKSGTASVVCLLNNFYPREAKVQWKVDNALQSGNSQESVTEQDSKDSTYSLSSTLTLSKADYEKHKVYACEVTHQGLSSPVTKSFNRGEC

# Source: patent US20240400687A1 (Regeneron, published 2024)
